# Measured values: article PMC4336329 (PLoS ONE, 2015)
# The campaign covered roughly 310,000 compounds. About 14,000 (4.5%) showed an effect of 50% or more. Effects have a minus sign here. The list shows a part of the results.
# Molecular target: human ether-à-go-go-related gene (hERG) potassium channel (human, UniProt Q12809)
# Assay: primary screen, population patch clamp on CHO cells stably expressing hERG
# 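Further: peak tail current of the secondary pulse compared with the same well before compound.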
# Sequence of human ether-à-go-go-related gene (hERG) potassium channel (Q12809 whole entry, looked up): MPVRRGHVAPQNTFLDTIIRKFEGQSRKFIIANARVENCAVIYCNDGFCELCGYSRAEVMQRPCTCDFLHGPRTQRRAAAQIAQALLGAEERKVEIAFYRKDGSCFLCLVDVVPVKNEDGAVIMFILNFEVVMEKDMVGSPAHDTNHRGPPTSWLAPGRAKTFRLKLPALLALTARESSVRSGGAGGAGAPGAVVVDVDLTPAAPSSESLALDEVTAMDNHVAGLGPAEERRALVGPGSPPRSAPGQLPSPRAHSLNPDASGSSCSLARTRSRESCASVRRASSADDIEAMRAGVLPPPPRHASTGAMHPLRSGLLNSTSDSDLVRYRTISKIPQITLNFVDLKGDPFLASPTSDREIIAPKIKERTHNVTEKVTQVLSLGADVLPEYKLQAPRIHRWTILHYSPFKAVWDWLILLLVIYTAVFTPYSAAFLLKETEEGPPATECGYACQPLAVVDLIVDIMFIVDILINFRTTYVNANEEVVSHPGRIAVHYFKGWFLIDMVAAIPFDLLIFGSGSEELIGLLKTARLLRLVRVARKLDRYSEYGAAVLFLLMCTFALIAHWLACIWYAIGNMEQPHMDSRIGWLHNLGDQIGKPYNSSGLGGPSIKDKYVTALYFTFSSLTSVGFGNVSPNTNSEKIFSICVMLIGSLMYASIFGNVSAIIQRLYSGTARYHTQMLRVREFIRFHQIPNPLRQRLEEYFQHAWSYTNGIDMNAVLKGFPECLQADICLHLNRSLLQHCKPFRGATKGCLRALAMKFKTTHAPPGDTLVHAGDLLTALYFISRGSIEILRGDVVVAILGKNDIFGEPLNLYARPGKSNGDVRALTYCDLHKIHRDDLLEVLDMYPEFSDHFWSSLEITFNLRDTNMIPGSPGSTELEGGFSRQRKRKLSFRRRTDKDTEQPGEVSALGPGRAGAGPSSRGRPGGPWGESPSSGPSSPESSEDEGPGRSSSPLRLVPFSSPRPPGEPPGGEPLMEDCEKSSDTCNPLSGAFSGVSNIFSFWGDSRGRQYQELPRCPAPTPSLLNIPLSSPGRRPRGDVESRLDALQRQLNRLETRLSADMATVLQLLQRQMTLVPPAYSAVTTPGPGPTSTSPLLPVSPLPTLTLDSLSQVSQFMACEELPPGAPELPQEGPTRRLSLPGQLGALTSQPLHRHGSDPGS
row,Structure (SMILES),"hERG current change (%, negative = inhibition) at 10uM [%]"
1,O=C1NC(=O)C2C3c4ccccc4C(c4ccccc43)C12 (stereo not shown),-11.5
2,Cc1ccc(-c2ocnc2C(=O)N2CCN(C(=O)c3cccs3)CC2)cc1,0.043
3,c1ccc(-c2ncc(CSc3nncn3-c3ccccc3)s2)cc1,-24
4,CCOc1ccc(CC(=O)N/N=C/c2cccnc2)cc1,9.88
5,O=C(COC(=O)c1ccc[nH]c1=O)NC1CCCCC1,7.99
6,CCN(c1ccccc1)S(=O)(=O)c1ccc(OC)c(NC(=O)CNC)c1.O=C(O)C(=O)O,13.6
7,COc1cc(NC(=O)c2ccccn2)cc(OC)c1OC,13.2
8,CCOC(=O)C1CCN(C(=O)COC(=O)COc2ccc(Cl)cc2)CC1,13.3
9,COC(=O)[C@H](CCSC)NC(=O)Nc1cc(C)ccc1C,11
10,COc1ccc(/C=C2\SC(=N)N(c3ccc(F)cc3)C2=O)cc1,17.6
11,CCOc1cc2[nH]c(=O)n(CC3CCC(C(=O)NCCCOC)CC3)c(=O)c2cc1OCC (stereo not shown),17.5
12,Cc1ccc(CN2CC(C(=O)Nc3ccc4c(C)cc(=O)oc4c3)CC2=O)cc1 (stereo not shown),4.88
13,CCN(CCCNC(=O)c1nn(C)c2c1CS(=O)(=O)c1ccccc1-2)Cc1ccccc1,-60.3
14,COc1ccc(CNC(=O)/C=C/c2cc3c(cc2Br)OCO3)cc1,9.67
15,CCCCNC(=O)O/N=C(\N)CS(=O)(=O)C(C)(C)C,-3.57
16,CCC1CCc2sc(C(=O)NNC(=O)c3ccncc3)cc2C1 (stereo not shown),-16.2
17,CCC(C)C(NC(=O)C1CCC(C)CC1)C(=O)NCCc1ccc(S(N)(=O)=O)cc1 (stereo not shown),4.32
18,C=CCN(c1ccc(C(=O)N2CCN(c3ccc(F)cc3)CC2)cc1)S(C)(=O)=O,-43.7
19,O=C(CSc1ncnc2c1nnn2Cc1ccc(F)cc1)NCC1CCCO1 (stereo not shown),-30.5
20,COc1cc(CCNc2ccc3nnc(-c4ccccc4)n3n2)cc(OC)c1OC,-14
21,CCc1cc2c(C)cc(C)cc2nc1SCC(=O)Nc1cc(C)on1,24.7
22,O=C(Nc1nc(-c2ccc3c(c2)Cc2ccccc2-3)cs1)c1ccccc1,20.4
23,CCCOc1ccc(-c2nc(-c3ccc([N+](=O)[O-])cc3)cs2)cc1,25.9

row,Structure (SMILES),"hERG current change (%, negative = inhibition) at 10uM [%]"
1,CC1CCN(c2ccc(NC(=O)c3ccc(Br)o3)cc2)CC1,-2.82
2,COc1ccc2[nH]c3c(Cl)ncnc3c2c1,-1.57
3,Cc1[nH]c2ccccc2c1C(c1ccccn1)N1CCC(C)CC1 (stereo not shown),-46.9
4,COc1cc(CCC(C)NCc2ccccc2)ccc1O (stereo not shown),-3.87
5,Nc1nnc(CCCCCc2nnc(N)s2)s1,13.3
6,Cc1nnc(N(C)C(=O)c2ccccn2)s1,13.2
7,Fc1ccccc1Nc1ncnc2c1nnn2Cc1ccccc1,-20
8,COC(=O)Nc1ccc(Oc2ccccc2)cc1,-29.9
9,CCn1nnnc1SCC(=O)N1CCCCC1,11.5
10,N#CCC(=O)N/N=C/c1cn(Cc2ccc(Cl)c(Cl)c2)c2ccccc12,12.6
11,CCCCN(C)C1CCN(C(=S)Nc2cccc(OC)c2)CC1,-19.9
12,CCCn1c(C)cc(/C=C(\C#N)C(=O)O)c1C,10.4
13,CC(NC(=O)c1ccc(S(=O)(=O)N(C)C)cc1)c1ccccc1 (stereo not shown),0.971
14,CC(C)NC(=O)C(=O)NNC(=O)C12CC3CC(CC(C3)C1)C2,15.4
15,Cc1ccc(S(=O)(=O)N(C)C)cc1NC(=O)COC(=O)/C=C/c1ccc2c(c1)OCO2,-9.63
16,Cc1cc(CN2CCOCC2)c(O)c(C2(C)CCCCC2)c1,12.2
17,CC(=O)/C(=C/c1ccc(N(C)C)cc1)C(=O)c1ccccc1,14.7
18,CC(=O)NC(Cc1ccccc1F)C(=O)NC1CCN(C(=O)Nc2ccc(C)cc2)CC1 (stereo not shown),-4.62
19,CC1(NC(=O)Nc2ccccc2)CCS(=O)(=O)C1 (stereo not shown),-53
20,FC(F)Oc1ccccc1/C=N/Nc1nc2ccccc2o1,33.5
21,CC(C)n1c(SCC(=O)NC2CCCCC2)nnc1-c1ccco1,-15.4
22,COC(=O)CNC(=O)c1ccccc1F,14.9
23,CC(C(=O)N1CCN=C1c1ccccc1)N1C(=O)c2ccccc2C1=O (stereo not shown),25.9

row,Structure (SMILES),"hERG current change (%, negative = inhibition) at 10uM [%]"
1,CCOC(=O)CSc1nnc(-c2ccco2)n1-c1ccccc1,-27.6
2,COC(=O)c1ccc2nc(-c3cccc(N)c3)cn2c1,-5.16
3,CN(C)C=NC(=O)c1cc(C(=O)c2ccc(F)cc2)c[nH]1,-16.2
4,CCCCn1c(CNC(=O)Cc2ccccc2)nc2ccccc21,-9.43
5,COc1ccc(C(=O)Nn2c(C)nc3ccccc3c2=O)cc1[N+](=O)[O-],-6.08
6,COCC(=O)N(Cc1cc2cc(C)ccc2[nH]c1=O)c1ccc(C)c(C)c1,7.89
7,N#CCCC1CCCC=C1N(Cc1ccccc1)C(=O)C(Cl)Cl (stereo not shown),-13.3
8,Cc1ccc(NC(=O)c2ccc(=O)[nH]n2)cc1C,-1.5
9,COC(=O)c1ccc(CNC(=O)C2CCC(=O)N(CCc3ccccc3)C2)cc1 (stereo not shown),-17.7
10,CCCCC(C)n1[nH]c(=O)cc1N (stereo not shown),7.31
11,O=C(NC1CCCCC1)C(c1ccccc1F)N(Cc1ccco1)C(=O)Cn1nnc2ccccc21 (stereo not shown),-5.98
12,O=S(=O)(O)c1ccc(N=Nc2ccccc2)cc1,14.6
13,CCN(CC)S(=O)(=O)c1ccc2c(c1)nc(-c1ccccn1)n2C,2.89
14,Cc1occc1C(=O)Nc1cccc(Cn2cccn2)c1,-10.6
15,COc1ccc(OCCC(=O)OCc2c(C)noc2C)cc1,0.92
16,COCCNC(=O)C(c1ccc(O)cc1)N(Cc1ccccc1)C(=O)CCC(=O)Nc1nccs1 (stereo not shown),9.43
17,O=C(c1cc(COc2cccc(C(F)(F)F)c2)on1)N1C[C@@H]2CCC[C@H]1C2,0.495
18,CCCCOC(=O)CCn1[nH]c(=O)c2ccccc2c1=O,0.159
19,O=C(C(F)C(F)(F)F)N1CCN(c2ccccc2)CC1 (stereo not shown),6.74
20,CCNC(=S)Nc1scc(-c2ccccc2)c1C(=O)OCC,8.76
21,CCN(CC)S(=O)(=O)c1cc(NC(=O)C2Cc3ccccc3C(=O)O2)ccc1C (stereo not shown),-44.7
22,COc1ccc(-c2coc3c(CN4CCCCC4C)c(O)ccc3c2=O)cc1 (stereo not shown),-39.4
23,COc1ccccc1NC(=O)COC(=O)CCc1ccc(S(=O)(=O)N2CCOCC2)cc1,-14.1

row,Structure (SMILES),"hERG current change (%, negative = inhibition) at 10uM [%]"
1,S=C(Nc1ccc(Cl)c(Cl)c1)NC1CCN(Cc2ccccc2)CC1,3.52
2,O=S(=O)(Nc1cccc(Oc2cnccn2)c1)c1ccc(F)cc1,14.4
3,CNC(=O)CN(c1cccc2ccccc12)S(C)(=O)=O,1.47
4,CCn1nc(C)c(CNC(=O)c2ccc(OC3CCN(Cc4ccccn4)CC3)cc2)c1C,17.3
5,Cc1nn(-c2ccccn2)c2c1C(c1c(F)cccc1Cl)C1=C(N2)c2ccccc2C1=O (stereo not shown),-4.66
6,O=S(=O)(c1ccc2c(c1)OCCO2)N1CCC(c2nc3ccccc3[nH]2)CC1,3.43
7,COC(=O)[C@@H]1C[C@@]2(O)[C@@H](O)[C@@H](O)[C@@H](O)C[C@H]2N1Cc1ccc(C(F)(F)F)cc1,11.3
8,Clc1cc(Cl)cc(C2=NCCC(c3ccccc3)O2)c1 (stereo not shown),-8.69
9,Cn1c(/C=C/c2ccc(Br)cc2)c([N+](=O)[O-])c(=O)n(C)c1=O,-42.6
10,O=C(O)c1nn(CCOc2ccccc2F)c(=O)c2ccccc12,3.27
11,O=C(O)c1cccc(S(=O)(=O)NCC2CCCO2)c1 (stereo not shown),-8.4
12,Cc1ccc(SC(CC(=O)c2ccc(F)cc2)C(=O)O)cc1 (stereo not shown),27.5
13,CCCN(CCC)CCCNS(=O)(=O)c1cc(Br)cc2c1N(C(C)=O)CC2,3.15
14,CC(=O)N1CCSc2ccc(S(=O)(=O)Nc3ccc(C)cc3)cc21,8.86
15,COc1ccccc1NC(=O)CCCC(=O)OC(C)C(=O)c1ccccc1 (stereo not shown),-24.1
16,CCC(Oc1cc(Cl)ccc1Cl)C(=O)NNC(=O)CCC(=O)O (stereo not shown),42.2
17,O=C(CSc1nc2ccccc2[nH]1)NCCCn1ccnc1,25.2
18,CCCOc1ccccc1Cn1c(=O)oc2ccc(C)cc21,4.55
19,O=C(CN1C(=O)NC2(CCCC2)C1=O)Nc1cc(Cl)ccc1Oc1ccccc1,-19.8
20,CCOc1ccc(N(CC(=O)Nc2ccccc2C(=O)NCc2ccco2)S(C)(=O)=O)cc1,-36.3
21,Fc1ccccc1Cn1cnc(NC(=S)NCCc2ccccc2)n1,17.9
22,Cc1nnc(SCC(=O)Nc2cc(C(C)(C)C)nn2-c2ccccc2)s1,-12.9
